Reference: ChEMBL document CHEMBL1201862, “PubChem BioAssay data set” (2004)

Each compound was assayed on NCI-H322M (assay: inhibition of tumour cell growth, NCI panel, 48 h).

| Compound | GI50 |
| --- | --- |
| Cc1nc2cc(Nc3ccccc3C(=O)O)ccc2s1 | inactive: > 100 µM |
| Cc1c(CNc2ccc(C(=O)NC(CC(=O)O)C(=O)O)cc2)ccc2nc(N)nc(N)c12 (stereo not drawn) | active: 0.247 µM |
| CC(C)(C)c1c2c(c(C(C)(C)C)c3c1OCN(Cc1ccccc1)C3)OCN(Cc1ccccc1)C2 | inactive: 19 µM |
| Cc1nc(N)nc(N)c1CCCc1ccccc1 | inactive: 29 µM |
| CCN(CC)CC[n+]1ccc2c(C)c3[nH]c4ccc(O)cc4c3c(C)c2c1 | inactive: 3.38 µM |
| O=C1ON(Cc2ccccc2)C(c2ccccc2)N1c1ccccc1 (stereo not drawn) | inactive: > 100 µM |
| C#CC1(O)C(COP(=O)(O)OC(COCCCCCCCCCCCCCCCCCC)COP(=O)(O)OCC2OC(n3cc(F)c(=O)[nH]c3=O)CC2O)OC(n2ccc(N)nc2=O)C1O (stereo not drawn) | active: 355 nM and active: 610 nM |
| N#C/C(=C/Sc1ccccc1)C(=O)O | inactive: 30.3 µM |
| CCC12CCCN(Cc3ccccc3)C1c1c(n(C)c3ccccc13)[C@H](C(=O)OC)C2 (stereo partly drawn) | inactive: 92.5 µM |
| CN1c2ccccc2N(C(=O)c2ccccc2)C(CC(=O)O)c2cccn21 (stereo not drawn) | inactive: > 100 µM |
| COc1ccc(/C(CC2OC(=O)c3ccccc32)=N\NC(=O)C[N+](C)(C)C)cc1 (stereo not drawn) | inactive: 36.2 µM |
| Cc1c(C)c(S(=O)(=O)N(CCCCN)OCCCN)c(C)c2c1OC(C)(C)CC2 | inactive: 15.4 µM |
| C=CCNC(=S)N/C=C(/C(C)=O)C(=O)Nc1ccccc1C | inactive: > 100 µM |
| CCCCCCCCCCOC(=O)c1cc[n+](C)cc1 | inactive: 17.7 µM |
| Nc1nc2c(=O)c3ccccc3sc2s1 | inactive: 68.7 µM |
| CCOC(=O)NC(OC)(C(F)(F)F)C(F)(F)F | inactive: > 100 µM |
| COc1ccc2c(c1)C1c3ccccc3CCN1CCC2 (stereo not drawn) | inactive: 47.1 µM |
| O=C1C(N2CCOCC2)=C(Cl)C(=O)c2ncccc21 | inactive: > 10 µM |
| COC(=O)C1(Cc2ccc3c(c2)CCC3)Cc2ccccc2C1=O (stereo not drawn) | inactive: 32.4 µM |
| COc1cc2c(cc1Cc1c(F)cccc1Cl)nc(-c1c(F)cccc1Cl)n2Cc1c(F)cccc1Cl | inactive: 28.3 µM |
| N#CCN1CCCN(CC#N)CCN(CC#N)CCCN(CC#N)CC1 | inactive: > 100 µM |
| Nc1ccc2c(c1)NC(=O)[C@@H]1CCCN1C2=O | inactive: > 100 µM |

| Compound | GI50 |
| --- | --- |
| C=C1C(=O)OC2C3OC(C)(CCC(O)C3COC(C)=O)CC(OC(=O)/C(=C/C)COC(C)=O)C12 (stereo not drawn) | inactive: 10.8 µM |
| CC1=NN(c2cccc(Cl)c2)C2(SCC(=O)N2c2nc3ccccc3s2)/C1=C\c1ccccc1O (stereo not drawn) | inactive: 25.3 µM |
| Cc1csc(NNC(=O)Nc2ccccc2)n1 | inactive: > 100 µM |
| CCCCCC[C@H]1C(=O)O[C@H](C)[C@H](NC(=O)c2cccc(NC=O)c2OC)C(=O)O[C@@H](C)[C@@H]1OC(=O)C(C)CC.CCCCCC[C@H]1C(=O)O[C@H](C)[C@H](NC(=O)c2cccc(NC=O)c2OC)C(=O)O[C@@H](C)[C@@H]1OC(=O)CC(C)C (stereo partly drawn) | inactive: 24.9 µM |
| Cc1ccc(S(=O)(=O)c2scc(-c3ccccc3)c2C)cc1 | inactive: > 100 µM |
| O=CC12C3CCC1C2C(=O)C3 (stereo not drawn) | inactive: > 100 µM |
| COC(=O)c1scc(N)c1-n1ccc(=O)[nH]c1=O | inactive: > 100 µM |
| Cc1c(Cl)cccc1NC(=O)C(=O)c1c(O)c2ccc(O)cc2oc1=O | inactive: > 100 µM |
| [N-]=[N+]=Nc1c(Cc2ccccc2)c(Cl)nc2ccccc12 | inactive: 13.1 µM |
| Cc1ccc(-c2nnc(-c3nn(-c4ccccc4)c4nc5ccccc5nc34)o2)cc1 | inactive: 30.4 µM |
| COC(=O)C(=O)C(C(=O)C(=O)Nc1ccccc1[N+](=O)[O-])c1nc2ccc([N+](=O)[O-])cc2nc1O (stereo not drawn) | inactive: > 100 µM |
| CNc1nc(=O)c(C#N)c(-c2ccc(C)cc2)s1 | inactive: > 100 µM |
| Oc1c(C2=NNC(c3ccc(Cl)cc3Cl)C2)ccc2ccccc12 (stereo not drawn) | inactive: 49.3 µM |
| C=C(C)C(=O)OC1CC2(C)OC2CC(OC(C)=O)/C(C)=C/C2OC(=O)C(=C)C21 (stereo not drawn) | inactive: 16.2 µM |
| CC(NC(=O)C(C)C(=O)NCc1ccc(C(F)(F)F)cc1)C(N)=O (stereo not drawn) | inactive: > 100 µM |
| C=CC1=C(C)c2cc3[nH]c(c4c5nc(cc6[nH]c(cc1n2)c(C=O)c6CC)C(C)=C5C(=O)[C@@H]4C(=O)OC)[C@@H](CCC(=O)O)[C@@H]3C | inactive: > 100 µM |
| CC1(c2ccccc2)CC(c2ccccc2)=NO1 (stereo not drawn) | inactive: > 100 µM |
| Cc1nc(N)c(N2CCN(S(N)(=O)=O)CC2)c(O)n1 | inactive: > 100 µM |
| CC(=O)OCCOCNC(=S)N/N=C/c1ccc2ccccc2n1 | inactive: 30.6 µM |
| C[C@H](NC(=O)C(C)(Cc1ccc(O)cn1)NC(=O)c1ccccc1)c1ccccc1 (stereo partly drawn) | inactive: > 100 µM |
| CC1(C)CC(=O)c2c(nc3c(ccc4ccccc43)c2-c2ccc(NC(=O)CCC(=O)Nc3ccc(-c4c5c(nc6c4ccc4ccccc46)CC(C)(C)CC5=O)cc3)cc2)C1 | inactive: > 100 µM |

Values joined by “and” are separate entries in the source; they are usually repeats but may differ in a detail not shown here. Equal entries are not always repeated.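 Briefly, cells in 96-well plates were exposed to five compound concentrations for 48 h, and endpoints were estimated by linear interpolation. Here, GI50 denotes the concentration required for 50% inhibition of growth.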 Active and inactive are the calls of the source. Rule as the data show it: active = GI50 up to about 1.1 µM and inactive = higher.
